Laboratory results: patent publication US20240024501A1 (BONUM THERAPEUTICS, published 2024)
Read-outs that look alike come from different tables or passages of the source.

Key:
[1] = target: T1, PDL1-hFc-Avi (Acro Biosystems, PDL-H82F2) (UniProt Q9NZQ7 part only, biotinylated); assay: ELISA: scFv captured at saturating level on anti-V5, titrated PDL1-hFc-Avi, streptavidin-HRP
AF33 [2] = target: T2, AF33; assay: ELISA: scFv captured at saturating level on anti-V5, titrated biotinylated AF33 (IL-15 fusion), streptavidin-HRP
T2 construct: also called IL-15; IL15

[3] = target: T1, PDL1-hFc-Avi (Acro Biosystems, …); assay: ELISA: scFv captured at saturating level on anti-V5, titrated PDL1-hFc-Avi, streptavidin-HRP; remark: listed apart in the source
AF33 [4] = target: T2, AF33; assay: ELISA: scFv captured at saturating level on anti-V5, titrated biotinylated AF33 (IL-15 fusion), streptavidin-HRP; remark: listed apart in the source

Binder | binding result [1] | binding result (AF33 [2]) | binding result [3] | binding result (AF33 [4])
AF666 (scFv) scFv: MSTSTEQKLISEEDLQVQLVQSGAEVKKPGASVKVSCKASGYTFSTYYIHWVRQAPGQGLEWMGWMNPNSGNTGYAQTFQGRVTMTRDTSTSTVYMELSSLRSEDTAVYYCARSLFPTIFGVEVAFDIWGQGTLVTVSSASGGGGSGGGGSGGGGSHAS[about 100 residues not written out]GKPIPNPLLGLDST | binds | binds |  | 
AF614 (scFv) scFv: MSTSTEQKLISEEDLQVQLVQSGAEVKKPGASVKVSCKASGYTFTNYYMHWVRQAPGQGLEWMGWMNPNSGNTGYAQKFQGRVTMTRDTSTSTVYMELSSLRSEDTAVYYCARSLFPTIFGVEVAFDIWGQGTLVTVSSASGGGGSGGGGSGGGGSHAS[about 100 residues not written out]GKPIPNPLLGLDST |  |  | binds | binds
